Drawing on PMC4503722, “Novel Phenotypic Outcomes Identified for a Public Collection of Approved Drugs from a Publicly Accessible Panel of Assays” (PLoS ONE, 2015), this text covers EC50 and IC50 for four molecules.

Holding throughout (experiment): cells
Common to all, as to format: cell-based

In one experiment the test system is INS-1E cells. The note with it: Rattus norvegicus, read-out: Insulin Secretion.
In the next experiment the test system is NCI-H716 cells. The conditions noted are these: Homo sapiens, NCI-H716, read-out: GLP 1 Secretion.
Experiment [1] relates to HCT116 cells treated with a GSK3β inhibitor. The conditions noted are these: Homo sapiens, HCT-116, read-out: GSK3b inh pretreated_Viability ATP HCT116.
The subject of a further experiment is DLD-1. The conditions noted are these: Homo sapiens, DLD-1, read-out: Basal_Viability ATP DLD-1.
For a further experiment, the system named is SW480. The note with it: Homo sapiens, SW480, read-out: Basal_Viability ATP SW480.
Experiment [2] deals with nuclear β-catenin in C2C12 cells. The note with it: Mus musculus, C2C12, read-out: Wnt Pathway.
For a further experiment, the system named is HCT116. The conditions noted are these: Homo sapiens, HCT-116, read-out: Basal_Viability ATP HCT116.
Experiment [3] has as its system endothelial tube formation in co-cultures of ECFCs and ADSCs treated with VEGF. The note with it: Homo sapiens, read-out: Anti-Angiogenesis.

As for `CCN(CC)CCOc1ccc(C(=C(Cl)c2ccccc2)c2ccccc2)cc1` [Clomiphene], the EC50 in the experiment on INS-1E cells was over 10 µM; in the experiment on NCI-H716 cells it was over 20 µM. Besides, the IC50 in experiment [1] turned out to be 2.61 µM; in the experiment with DLD-1, 1.84 µM; in the experiment on SW480, 1.94 µM.
For `Clc1ccc(COC(Cn2ccnc2)c2ccc(Cl)cc2Cl)cc1` (centres unmarked) [Econazole], the EC50 with INS-1E cells is over 10 µM; with NCI-H716 cells it was 4.29 µM; in experiment [2], over 10 µM. For the same molecule, the IC50 was 4.44 µM in experiment [1], 3.81 µM in the experiment with DLD-1, 3.16 µM in the experiment with SW480 and 4.39 µM with HCT116.
In the case of `Cc1ccccc1C(OCCN(C)C)c1ccccc1` (centres unmarked) [Orphenadrine], the EC50 (in the experiment with NCI-H716 cells; in experiment [2]) was over 10 µM in each case. The IC50 in experiment [1] is over 20 µM; in experiment [3] it was over 10 µM; with DLD-1, over 20 µM; with SW480 it was over 20 µM; in the experiment with HCT116 it was over 20 µM.
Turning to `COc1cc2c(c(OC)c1OC)-c1ccc(OC)c(=O)cc1[C@@H](NC(C)=O)CC2` [colchicine], the IC50 in experiment [1] was 0.0667 µM; in the experiment on DLD-1, 0.336 µM; with SW480, 0.338 µM; with HCT116 it was 0.164 µM.
